Measurements as given in PubChem BioAssay AID485281 (National Center for Advancing Translational Sciences (NCATS), 2010).
About 260 (0.074%) of roughly 350,000 compounds were called active. The inconclusive results got no clear call from the source; some entries with a clear call stand among them for comparison. The call rests on the fitted dose curve; in most records, active means well fitted inhibition curve with a large enough effect; inconclusive means small, poorly fitted or top-dose-only effect; inactive means no such curve, though single readings can be large or run the other way. A potency beside an inconclusive call is a rough fit, not a confirmed value.
Further: nearly all actives have a fitted effect of over 20% in size.
Potency means the concentration at half of the fitted maximal effect; tags describe the fitted curve by direction and shape.

The molecules below were run against Ferritin light chain (Equus caballus) (UniProt P02791) (assay: qHTS Assay for Identification of Novel General Anesthetics). Details: apoferritin/1-aminoanthracene competitive binding, fluorescence; series mostly up to 77.5 µM.
Sequence of UniProt P02791 (P02791 whole entry, looked up): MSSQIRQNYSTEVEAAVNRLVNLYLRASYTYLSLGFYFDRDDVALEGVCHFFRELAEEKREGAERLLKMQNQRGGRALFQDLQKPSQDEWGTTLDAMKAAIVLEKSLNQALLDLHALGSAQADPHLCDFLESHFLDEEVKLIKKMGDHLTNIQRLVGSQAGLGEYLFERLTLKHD
Outline: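 Steps: apoferritin (10 uM) was premixed with half-saturated 1-AMA in PBS, compounds were pin-transferred, plates stood 10 min at room temperature, fluorescence was read at 380/535 nm, and curves were fitted with a Hill equation.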
For CCN1CCN(Cc2ccc(NC(=O)c3ccc(C)c(NC(=O)c4cc(-c5ccc(Br)cc5)n[nH]4)c3)cc2C(F)(F)F)CC1, the Potency was “inactive”.
With Cc1cc(N/N=C/c2ccncc2)nc2ccccc12 the Potency was “inactive”.
In the case of O=C(NCCCc1ccccc1)c1ccc(Br)o1, the Potency is reported as inconclusive: 31.6 µM [inhibitor, partial curve].
For CC(C)(C)c1ccc(OC(=O)Cn2c(C(F)(F)F)nc3ccccc32)cc1, the Potency was inconclusive: 2.51 µM [inhibitor, full curve, poor fit].
With CCCCC(=O)Nc1ccc(F)c(Cl)c1 the Potency was inconclusive: 22.4 µM [inhibitor, partial curve].
N#CCc1ccc(Oc2ncc(C(F)(F)F)cc2Cl)cc1 was tested, and the Potency was inconclusive: 12.6 µM [inhibitor, partial curve].
In the case of COc1ccc(C2=C(C)C(N3CCC(C(=O)Nc4ccc(F)cc4C)CC3)=NS2(=O)=O)cc1, the Potency is reported as inconclusive: 22.4 µM [inhibitor, partial curve].
With Cc1ccccc1OCCCCc1c(C)n[nH]c1C the Potency was inconclusive: 35.5 µM [inhibitor, partial curve].
Cc1ccc(C(=O)COC(=O)CN2C(=O)C3C4CCC(C4)C3C2=O)cc1[N+](=O)[O-] (centres undefined) was tested, and the Potency was inconclusive: 11.2 µM [inhibitor, partial curve].
CCN(CC)c1ccc(CNc2ccc3c(c2)ncn3CC)cc1 was tested, and the Potency was “inactive”.
CN1CCN(C(=O)c2ccc3c(=O)n(Cc4ccc(Cl)cc4)c(=S)[nH]c3c2)CC1 was tested, and the Potency was inconclusive: 35.5 µM [inhibitor, partial curve].
With O=C1C2C3C=CC(CC3)C2C(=O)N1c1ccccc1[N+](=O)[O-] (centres undefined) the Potency was inconclusive: 17.8 µM [inhibitor, partial curve].
COc1cc(SC)ccc1C(=O)OCC(=O)NC1CCCCC1 was tested, and the Potency was inconclusive: 31.6 µM [inhibitor, partial curve].
CCOC(=O)C1CCCN(C(=O)c2ccc(C)cc2O)C1 (centres undefined) was tested, and the Potency was inconclusive: 10 µM [inhibitor, partial curve].
For CCn1c(Sc2nc(C)nc3scc(-c4cccs4)c23)n[nH]c1=O, the Potency was inconclusive: 25.1 µM [inhibitor, partial curve].
For c1ccc(Cc2nn3c(COc4ccccc4)nnc3s2)cc1, the Potency was inconclusive: 35.5 µM [inhibitor, single point].
In the case of COC(=O)CSc1ncnc2c1cnn2-c1ccc(C)cc1C, the Potency is reported as inconclusive: 39.8 µM [inhibitor, single point].
In the case of COc1ccc(NC(=O)CN2CCc3ccccc3C2)c(OC)c1, the Potency is reported as “inactive”.
In the case of CO/N=C\C(=N\Nc1ccc(OC)cc1)C(=O)c1ccccc1, the Potency is reported as inconclusive: 22.4 µM [inhibitor, partial curve].
For CS(=O)(=O)Nc1ccc(C2=NN(S(C)(=O)=O)C(c3ccc4nccnc4c3)C2)cc1 (centres undefined), the Potency was “inactive”.
For CC(C)C(=O)Nc1ccc(C(=O)c2ccccc2)cc1, the Potency was “inactive”.
With Cc1ccc(C)c(N2C(=O)C3C4C=CC(CC4)C3C2=O)c1 (centres undefined) the Potency was inconclusive: 31.6 µM [inhibitor, partial curve].
CCCC(c1nnnn1CC1CCCO1)N1CCN(c2cc(Cl)ccc2C)CC1 (centres undefined) was tested, and the Potency was “inactive”.
In the case of CCN1CCN(CCCNC(=O)c2ccc(/C=C3/Sc4ccccc4N(Cc4ccccc4F)C3=O)cc2)CC1, the Potency is reported as inconclusive: 35.5 µM [inhibitor, partial curve].
In the case of CCOC(=O)CNC(=O)c1sc2ncnc(N3CCc4ccccc4C3)c2c1C, the Potency is reported as inconclusive: 31.6 µM [inhibitor, partial curve].
In the case of CC1=CC(C)(C)N(C(=O)CSc2nnc(C)s2)c2ccc(C)cc21, the Potency is reported as “inactive”.
With CC(=O)Nc1ccc(N(CC(O)Cn2c3ccccc3c3ccccc32)S(=O)(=O)c2ccc(C)cc2)cc1 (centres undefined) the Potency was “inactive”.
With CCC(C)(C)NC(=O)CN(C(=O)CNS(=O)(=O)c1ccccc1)c1ccc2c(c1)OCCO2 the Potency was “inactive”.
COc1ccc(CCOC(=O)CNC(=O)c2ccc(Cl)cc2Cl)cc1 was tested, and the Potency was inconclusive: 22.4 µM [inhibitor, partial curve].
With Cc1csc(Sc2ccc([N+](=O)[O-])cc2C(=O)OCC(=O)NC2CCCC(C)C2C)n1 (centres undefined) the Potency was inconclusive: 10 µM [inhibitor, partial curve].
CCc1nc(OCC(=O)c2ccccc2)c(C#N)c2c1COC(C)(C)C2 was tested, and the Potency was inconclusive: 39.8 µM [inhibitor, partial curve].
O=C(NC1CCCCCC1)c1c(F)c(F)c(F)c(F)c1F was tested, and the Potency was inconclusive: 10 µM [inhibitor, partial curve].
With O=C(Nc1nnc2n1CCS2)c1ccc(F)cc1F the Potency was “inactive”.
For COc1ccc(C2C(C(=O)OCC3CCCO3)=C(C)NC3=C2C(=O)CC(c2ccco2)C3)cc1O (centres undefined), the Potency was “inactive”.
With CN1CCN(S(=O)(=O)c2cccc(C(=O)Oc3ccc(Br)cc3F)c2)CC1 the Potency was inconclusive: 39.8 µM [inhibitor, partial curve].
In the case of O=C(/C=C/c1ccccc1)N/C(=C/c1ccccc1)C(=O)N1CCCCC1, the Potency is reported as inconclusive: 50.1 µM [inhibitor, partial curve].
CCCCN(c1ccccc1)S(=O)(=O)N(C)C was tested, and the Potency was inconclusive: 14.1 µM [inhibitor, partial curve].
With Nn1c(Nc2ccccc2)nc2sc3c(c2c1=O)CCCC3 the Potency was inconclusive: 39.8 µM [inhibitor, partial curve].
With O=C(CSc1ccc([N+](=O)[O-])cn1)Nc1nccs1 the Potency was inconclusive: 4.47 µM [inhibitor, full curve].
CCOc1cc(N2CCOCC2)c(OCC)cc1NC(=O)CC12CC3CC(CC(C3)C1)C2 was tested, and the Potency was inconclusive: 25.1 µM [inhibitor, partial curve].
In the case of Cc1ccc(NNC2CC(=O)N(c3cccc(Cl)c3)C2=O)cc1 (centres undefined), the Potency is reported as inconclusive: 35.5 µM [inhibitor, partial curve].
CCCN(CCC)S(=O)(=O)c1ccc(Cl)c(OC)c1 was tested, and the Potency was inconclusive: 3.98 µM [inhibitor, full curve].
For CCc1ccccc1NC(=S)N(CCCN1CCOCC1)Cc1cccs1, the Potency was inconclusive: 25.1 µM [inhibitor, single point].
In the case of O=C(c1cccs1)N(Cc1cccnc1)c1nc2c(Cl)cccc2s1, the Potency is reported as inconclusive: 14.1 µM [inhibitor, partial curve].
In the case of S=C(NC1CC2CCC1C2)N1CCN(c2cccc(Cl)c2)CC1 (centres undefined), the Potency is reported as “inactive”.
In the case of COCCN=c1scc(-c2ccco2)n1/N=C/c1ccc(O)c(O)c1O, the Potency is reported as inconclusive: 14.1 µM [inhibitor, partial curve].
Cc1ccc(NC(=O)CN2C(=O)NC3(CCc4ccccc43)C2=O)cc1 (centres undefined) was tested, and the Potency was inconclusive: 12.6 µM [inhibitor, partial curve].
In the case of CCC(C)(c1ccc(C(=O)OC)s1)c1ccc(C(=O)OC)s1, the Potency is reported as inconclusive: 11.2 µM [inhibitor, partial curve].
For CC1(CCc2ccccc2)NC(=O)N(CC(=O)Nc2ccc3c(c2)OCCO3)C1=O (centres undefined), the Potency was inconclusive: 35.5 µM [inhibitor, partial curve].
In the case of COc1ccc(Nc2c3c(nc4ccc(NC(=O)/C=C/c5cc(OC)c(OC)c(OC)c5)cc24)CCCC3)cc1OC, the Potency is reported as “inactive”.
Cc1nn(Cc2ccc(Cl)c(Cl)c2)c(C)c1NC(=O)c1cc(C2CC2)on1 was tested, and the Potency was inconclusive: 20 µM [inhibitor, single point].
For Cc1occc1C(=O)N/N=C/C=C/c1ccc(N(C)C)cc1, the Potency was “inactive”.
For CN(CC(=O)Nc1cccc(F)c1)CC(=O)Nc1ccc(Cl)cc1[N+](=O)[O-], the Potency was inconclusive: 44.7 µM [inhibitor, single point].
For Cc1cc(C)c2nc(SCC(=O)NNC(=O)c3ccco3)c(C)cc2c1, the Potency was inconclusive: 14.1 µM [inhibitor, partial curve].
For CCOC(=O)c1nn(-c2ccccc2)c(=O)cc1SC(C)C, the Potency was “inactive”.
O=C1c2ccccc2C(=O)N1CCc1c[nH]c2ccccc12 was tested, and the Potency was inconclusive: 25.1 µM [inhibitor, partial curve].
With O=C(C1CCCN(S(=O)(=O)c2cccc3cccnc23)C1)N1CCN(c2ccc(F)cc2)CC1 (centres undefined) the Potency was inconclusive: 10 µM [inhibitor, partial curve].
CCOc1ccc(-c2cnc(NCc3ccc(C(F)(F)F)cc3)n2C)cc1 was tested, and the Potency was inconclusive: 15.8 µM [inhibitor, partial curve].
With C=CCOCCN1C(=O)C2C(c3ccccc3)C=CC(c3ccccc3)C2C1=O (centres undefined) the Potency was inconclusive: 50.1 µM [inhibitor, single point].
CCOc1ccc(-n2c(SCC(=O)Nc3cccc(Cl)c3)nc3c(oc4ccccc43)c2=O)cc1 was tested, and the Potency was “inactive”.
O=S(=O)(C/C(=C/CO)S(=O)(=O)c1ccccc1)c1ccccc1 was tested, and the Potency was “inactive”.
With CS(=O)(=O)Nc1ccccc1C(=O)Nc1cc(Cl)cc(Cl)c1 the Potency was “inactive”.
For Cc1cccc(NC(=O)c2cc([N+](=O)[O-])ccc2NCC2CCCO2)n1 (centres undefined), the Potency was inconclusive: 28.2 µM [inhibitor, partial curve].
For CCOc1cccc(C(=O)NC2CCCCC2)c1, the Potency was “inactive”.
For O=C1OC2(c3ccccc3)C3CCCC2C13, the Potency was inconclusive: 28.2 µM [inhibitor, partial curve].
With O=C(Nc1cc(F)ccc1F)N1CCC(CN2CCOCC2)CC1 the Potency was inconclusive: 5.62 µM [inhibitor, full curve, poor fit].
With CCOC(=O)C(Nc1ccc2ccccc2c1)C(=O)OCC the Potency was inconclusive: 31.6 µM [inhibitor, partial curve].
For COc1cc(NCCCCCCCN)c2ncccc2c1, the Potency was “inactive”.
Cc1ccc(O)c(N=NC2=C(O)CC(C)(C)CC2=O)c1 was tested, and the Potency was inconclusive: 31.6 µM [inhibitor, single point].
